According to the supplement of paper PMC11417369:
± gives the standard deviation of the averaged measurements. The list shows a part of the results.

test system: PfAP2-EXP AP2 domain (GST-tagged); assay: gcPBM binding intensity (ln(normalized median fluorescence intensity)); higher = stronger DNA binding
Summary of the method: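 After 1 h on an Agilent 4 × 180k array of primer-extended double-stranded 36-bp intergenic genomic probes and negative controls, bound GST-tagged P. falciparum DNA-binding domains were detected with Alexa488 anti-GST antibody and scanned at 488 nm. The domains had been expressed in E. coli, and binding took place in 1× PBS with 1% milk, 0.2 mg/ml BSA, 0.5% salmon testes DNA and 0.03% Triton X-100. Binding intensity is the highest Masliner-normalised natural-log median intensity across replicate spots of either probe orientation.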

Sequence | gcPBM binding intensity (ln)
AAGAATGTTATTAGTACACACAATTATTATAGAAAT [CACACA_site7714] | 8.54 ± 0.33
TTTGGCTAGTTAGGCCGTACATGTAAATAATATATA [XGTACX_site1138] | 8.71 ± 0.13
TCCATATATGCCTTATGTACATATACCAAATTAACC [XGTACX_site6513] | 8.98 ± 0.35
AATAATAAAGTGAACACACACATATAACATCTATAT [CACACA_site7868] | 8.46 ± 0.59
AAAGGATTTATACTAGTGCAAAAATATAAAAATATA | 8.73 ± 0.21
TTGGAAAAAGTGAAATGTACATATATATTTATTATT [XGTACX_site6946] | 8.63 ± 0.51
AATGAATGTAAGAAAATACACACTAGTATAGTAACA [CACACA_site1955] | 8.76 ± 0.57
GAAGTTTTTTAAAGATGTACTTTTTAAAAATAATCT [XGTACX_site263] | 8.24 ± 0.32
ACAAATACAAAAAAAGGTACACACATAATATATTTA [XGTACX_site5515] | 8.72 ± 0.51
GACACAAAAAAATAATAATAATAATAATAATAAATA [XGTACX_negctrl_site145] | 8.31 ± 0.49
AATATAAATACTCCTACACACATATATATATATATA [CACACA_site3010] | 10.1 ± 0.52
AAATATTTTATACTTGCACACAAAATATATTAAAAT [CACACA_site8606] | 8.45 ± 0.25
TTTGTTTTTAATTTCGCACACACCTTGTGGAAAAAA [CACACA_site577] | 8.7 ± 0.21
TTCTTATAAATATACACACACAAAATATCTACAATG [CACACA_site6487] | 8.65 ± 0.42
TTATAAGATTTATGTACACACATATACTCACCTCTA [CACACA_site729] | 8.51 ± 0.25
CCTTAAAATAAGATATGTACGCAAAGGAAAACAAAG [XGTACX_site6057] | 9.08 ± 0.48
TGTGTAAGATCTTGGATGATGATAAGAATCTACTAG [CACACA_negctrl_site1167] | 8.49 ± 0.56
TGCTATAATTTATATACACACAAATATATACGCATA [CACACA_site4096] | 8.38 ± 0.36
TATGTATGTGCTTGTGCGCACCGATAATATAGCCAA | 8.865 ± 0.021
TCTCATAGTAGACACACACACACACGCACATATATA [CACACA_site6916] | 8.89 ± 0.49
TTTTATGAAAAGTATTGTACGTATAATTTATATGTA [XGTACX_site1639] | 8.32 ± 0.41
ACATAAGACACAAATACACACAAAAATATGTAACAA [CACACA_site7836] | 8.59 ± 0.52
TATATAAATAGACACACACACACCTTATAATTACTA [CACACA_site7828] | 8.7 ± 0.3

Sequence | gcPBM binding intensity (ln)
AAAAAAAAAAAACACACACACACATACACATACATA [CACACA_site2858] | 8.56 ± 0.61
ATAATAATTAACCTATGTACATAGGAAAGTCATAAA [XGTACX_site4387] | 8.92 ± 0.62
GAAGAAAAATAAAAAGTGCAAAAAAAGTAAAAATTT [GTGCAC_site9897] | 8.95 ± 0.49
ATATATATATATAATTGTACATATAATATAATATTA [XGTACX_site5216] | 9.99 ± 0.17
AATATGTTATAAATATGTTATAAATAATAAATAAAT [GTGCAC_negctrl_site135] | 8.45 ± 0.47
AACACATGCTTGGTCACACACGTATGCATATTTAAA [CACACA_site5206] | 8.89 ± 0.41
ATATATATTATATATAGTACTTTTTTGCGCAAATAT [XGTACX_site6849] | 8.71 ± 0.33
TATTTTTTTTTTTTTTTTTTTTTAAAACATATCAAT [CACACA_negctrl_site925] | 7.95 ± 0.64
TAAAAAAAAAAAAAAAGTACACACATACATATAAAT [XGTACX_site3752] | 8.61 ± 0.44
ACAATGTCATTTGCTAGTACGCATATTGGTTGTAAA [XGTACX_site8924] | 8.63 ± 0.38
ATTTTTTTTTTTTTATGTACATATAGGTGCAAATCA [XGTACX_site6748] | 9.09 ± 0.12
TAATTATATATATACACACACATACAGACAAATAAA [CACACA_site3412] | 9.04 ± 0.46
GAAATTTGTTATTGCACACAAATTTTTCTTTTTTTA [CACACA_site2339] | 8.49 ± 0.28
TCCTTTTTGAAATGTTGTACTTTTTTTATCTTTCAT [XGTACX_site953] | 8.73 ± 0.35
ATATTTATATATATCATACACACTAATATGTATATT [CACACA_site3409] | 8.35 ± 0.41
TACCATATTTCTTCAAGTACGCATTATGTTAAAAAG [XGTACX_site345] | 8.78 ± 0.37
TACATATATTTTTATACATGCATAACTTAGGACTTT [TGCATGCA_site113] | 8.64 ± 0.3
AAAATATTTTTATAATGTACATATAGTTGTATTTGT [XGTACX_site8724] | 8.8 ± 0.3
ATATATATTTAACAATGTACTTATTCAGAGAATAAT [XGTACX_site574] | 8.25 ± 0.33
ATTTTTATTCAGTTCACACACGCTTTAATATTATAT [CACACA_site3465] | 9 ± 0.49
CCCTTAATATAAAGCACACATATATATAATATATAT [CACACA_site4439] | 8.81 ± 0.26
AAGTTGAAATAATGTGCACACATTTTTTTTTTTTTT [CACACA_site3368] | 8.46 ± 0.21
ATTAATAAAAAATTTTAAAAAATAAATAAAATAAAA [TGCATGCA_negctrl_site113] | 7.99 ± 0.23

Sequence | gcPBM binding intensity (ln)
ATAATAAATAAAATAACACACATATATAAATATATA [CACACA_site170] | 8.4 ± 0.18
ATTATGTGTCCACATGTAAGCTATCTTACTTATATA [CACACA_negctrl_site1227] | 8.62 ± 0.28
ATAGTTACACAATGGTGTACAAGTCAATATATTTCT [XGTACX_site4614] | 8.34 ± 0.34
TACAAAAAAATAAAAAAAATTAAATAAATAAATATA [CACACA_negctrl_site45] | 8.17 ± 0.37
CATATTTGTGGACACACACACATATTTATATATATA [CACACA_site5887] | 8.885 ± 0.035
ACTAAAAAATATATATGTACATAATAATATATTATT [XGTACX_site1260] | 8.46 ± 0.3
ATTTATACTTATGTATGTACATATATACATATGTAT [XGTACX_site3979] | 8.52 ± 0.45
AAAAAAAAAAAAAAAAAAAACGAAAAACATCAAAGA [TGCATGCA_negctrl_site78] | 8.75 ± 0.11
TATCCTTATATTTGCACACACACACTAGAAAATGAA [CACACA_site4714] | 9.025 ± 0.078
ATAATAAAATAACTAGTGCATATTCAAAGGATTCAG | 8.74 ± 0.26
AATGTATAAATCCATACACACATAAATTTTAATAAT [CACACA_site2363] | 8.32 ± 0.47
AAAAAAATTAAAAATTAAAATTAAAAATAATATATA [GTGCAC_negctrl_site466] | 8.12 ± 0.57
TTTATATTTATGATGGGTACACAAAATTTTACCCAT [XGTACX_site1504] | 8.7 ± 0.28
TTCATAAAATGTGTCTGTACGTAAATGTATTACACT [XGTACX_site3179] | 8.54 ± 0.37
CTGTCTGCAGATATGGTGCATTTGTAAGATCTTACA [GTGCAC_site9870] | 8.99 ± 0.24
TAATTTCTTTAGGGGGTGCTTTTATAGTTTTTATTA | 10.4 ± 0.54
ATATATATATATATATGTACACATAAAAAGAAAGAA [XGTACX_site1603] | 10.2 ± 0.21
AACATTATATATTGCAGTACTCCCATATGTTGATAA [XGTACX_site3119] | 8.97 ± 0.38
TATATACCTATATACACACACATATATTATAGATAT [CACACA_site6266] | 8.35 ± 0.34
TTTAGTTGTGAGAATTGTACATATTTTCCTTTTACC [XGTACX_site7291] | 8.59 ± 0.49
TATATATATGAACAATGTACGTATAATATTTTTATT [XGTACX_site7561] | 8.55 ± 0.37
GATCTATACTATAATACACACATTTGATGAATGTAA [CACACA_site6163] | 8.44 ± 0.34
GCAATTTTTTTTAAGAGTACTAATATATTATAGTGG [XGTACX_site7316] | 8.39 ± 0.35

Sequence | gcPBM binding intensity (ln)
TTTTTTTAATAGTGTGCACACAATATACAGAAAAAA [CACACA_site8399] | 9.08 ± 0.18
TTTTTTTTCATTTTATGTACACATAATTTAATATAT [XGTACX_site5768] | 8.71 ± 0.27
CATAATTTAAAAAAGGTGCAAAATGGATAATATATA [GTGCAC_site9657] | 9.33 ± 0.16
CATACATACATACATACATGCATACATACATACATA [TGCATGCA_site218] | 9.3 ± 0.26
ATATATATATATATATGTACATATGTTTGTTTCCGC [XGTACX_site5167] | 10.3 ± 0.21
ATATACATATATATATGTACTTATTTATTTATTTAT [XGTACX_site2532] | 8.56 ± 0.26
AAAAAGTGACTCCTTACACACTTTACATAATTTAGG [CACACA_site8176] | 8.54 ± 0.43
TGAAAAAAAAAATACACACACGAGTTGTTATACATA [CACACA_site7486] | 8.38 ± 0.46
ATTAAAAAAATTGGCACACATAAAAATATATAAAAA [CACACA_site2748] | 8.77 ± 0.33
GTTTTTAATGTTTTGACATGCAATATTAAAAATAAT [TGCATGCA_site174] | 8.8 ± 0.33
AACAGATATGAATAGAAAAAAAAAAATGGCCCATAT [TGCATGCA_negctrl_site443] | 8.4 ± 0.52
TATAATAATAAAAACACACACGTTGATTGTATTAGC [CACACA_site5336] | 8.47 ± 0.55
TATAATGATAATAATAGTACACATTAGAACGGGAGG [XGTACX_site2563] | 8.98 ± 0.23
TCTTTTTTTTATTATATCATTGAAATGTTAAAACGA [XGTACX_negctrl_site473] | 8.43 ± 0.42
CCTATTATTTCTAAAACACACAAAAATATAAAAGAA [CACACA_site2708] | 8.69 ± 0.53
ATAATATTATTTAAAAGTACTAACAAAAGAATATTA [XGTACX_site4989] | 8.61 ± 0.39
TTTTGATAGAAGTGTTCTAGGAATTCAACTGTAATA [GTGCAC_negctrl_site585] | 8.37 ± 0.49
ATTAAAAAAAATATATATGTATAAAACAAGCAAAAT [XGTACX_negctrl_site474] | 8.82 ± 0.49
GACCACTTTAGGATTTGTACACATATTATATATGCA [XGTACX_site6579] | 8.84 ± 0.4
TACACAAACAAACACACACACACACCCCCACAAAAA [CACACA_site2428] | 9.65 ± 0.51
